Experimental data from the supplement of paper PMC10126150.
Values marked as one replicate rest on one cluster of the flow cell; about a third of the high ones do not repeat.

Each sequence was assayed on ATP (assay: switch fluorescence ratio, 500 uM ATP over buffer (Cy3 cluster intensity, sum of 5 cycles each) (fold (ratio)); higher = stronger signal-on switching upon ATP binding; sequences stand for … in TCGTCGGCAGCGTCAGATGTGTATAAGAGACAGTTTTTTTTTTTTTTTTTTTTTTTTT…TC). Conditions: aptamer strand: ATP DNA aptamer (quencher-CACCTGGGGGAGTATTGCGGAGGAAGG + anchor), 100 nM annealed; ATP concentration: 500 uM; one replicate.
Method in brief: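 Cy3-labelled switching-strand clusters on a modified Illumina MiSeq flow-cell were annealed to 100 nM quencher-labelled ATP aptamer, imaged in selection buffer, then imaged after 15 min with 500 uM ATP at 22 °C. Five buffer/ATP cycles ran, with NaOH stripping and re-annealing between them. The fluorescence ratio is summed target-cycle over summed buffer-cycle Cy3 intensity per cluster, averaged per switch-domain sequence. Clusters outside 100-1000 RFU were excluded.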
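Further: ATP exposure 15 min at 22 °C before imaging.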

Sequence | switch fluorescence ratio
TATTTTCTCT | 0.994
TCAAAACGTG | 1
TCAAAAGATT | 1.01
TCAAAAGCTC | 1.07
TCAAACGGAC | 1.36
TCAAAGAGGC | 1.06
TCAAAGGGCT | 0.938
TCAAATGCAT | 0.987
TCAAATGGAC | 1.09
TCAAATTGAT | 1.02
TCAACAAATT | 1.3
TCAACAGAGA | 1.02
TCAACATACG | 1.41
TCAACCAGGA | 1.1
TCAACGGGG | 0.992
TCAACTAGTT | 0.943
TCAACTATA | 1.04
TCAACTCTCC | 1.12
TCAAGAAGCA | 1.01
TCAAGCGGAG | 1.05
TCAAGGCCGT | 0.929
TCAAGTCAGG | 1.05
TCAAGTTGG | 1.01
TCAATACGTA | 1.11
TCAATATGGT | 1.01

Sequence | switch fluorescence ratio
TCAATCCTAG | 1
TCAATGCAGA | 0.999
TCAATGCTTG | 1.02
TCAATTAAAG | 1.03
TCAATTAAGG | 1.01
TCACAAATCC | 0.982
TCACAATCAC | 1.35
TCACACAATC | 1.19
TCACACTTTA | 1.01
TCACAGCGTC | 1.14
TCACAGCTGC | 1.08
TCACATAGTG | 0.968
TCACCAAAAT | 1.05
TCACCCATAA | 1.01
TCACCGCGAG | 2.71
TCACCGCGTT | 1.75
TCACCTGGG | 1.08
TCACCTTGCG | 1.07
TCACGAAGGA | 0.984
TCACGATCCG | 1.07
TCACGATTAT | 1.06
TCACGGCCTC | 1.04
TCACGGTCCG | 1.06
TCACGGTCTC | 1.02
TCACGTTGG | 1

Sequence | switch fluorescence ratio
TCACTCACCA | 1.23
TCACTCTGTG | 1.01
TCACTCTGTT | 1.01
TCACTGGCAA | 1.77
TCACTTTAAT | 1.05
TCAGAAAATT | 1.01
TCAGAACTAT | 0.991
TCAGACCGTC | 1.04
TCAGACTAGG | 0.983
TCAGACTTAA | 1.07
TCAGACTTCT | 1.03
TCAGAGCAGT | 1.57
TCAGAGTTGG | 0.978
TCAGATCACG | 0.978
TCAGATTGCG | 0.993
TCAGATTGTG | 1.01
TCAGCAATAT | 1.04
TCAGCCAA | 1.02
TCAGCCGTCG | 1.02
TCAGCGCACA | 1.02
TCAGCGCGTC | 1.38
TCAGCGTTC | 1.07
TCAGCTGGCG | 0.959
TCAGCTTCGA | 1.01
TCAGGAAAAA | 1.1

Sequence | switch fluorescence ratio
TCAGGACTGG | 0.992
TCAGGCCGAC | 1
TCAGGCGAGT | 0.998
TCAGGCTGTA | 1.09
TCAGGGAATG | 0.997
TCAGGGCCCA | 1.05
TCAGGTGGTG | 1.04
TCAGGTTTAT | 1.01
TCAGTATAC | 1.12
TCAGTATTG | 1.01
TCAGTGGACT | 0.967
TCAGTGGGTA | 0.961
TCAGTGTCAC | 1.06
TCAGTGTCCC | 0.956
TCAGTGTGGG | 0.998
TCAGTTACCC | 0.987
TCATAACCAG | 0.977
TCATAAGCGA | 1.24
TCATACCAGT | 1.01
TCATAGGGCA | 1.01
TCATAGGTG | 1.27
TCATAGTAGT | 1.01
TCATAGTTAG | 0.989
TCATATATTC | 1.01
TCATATATTG | 0.967

Sequence | switch fluorescence ratio
TCATATGACA | 1.01
TCATATTGTA | 1
TCATCAAAAT | 1.11
TCATCACATT | 1
TCATCCACAG | 1.64
TCATCCATTC | 1.13
TCATCGGGAG | 1.17
TCATCGGGGG | 1.02
TCATCTAGG | 1.21
TCATCTTATC | 1.02
TCATGACCTA | 1.02
TCATGAGCTG | 0.986
TCATGATTAT | 1.02
TCATGCCTGT | 0.974
TCATGCTCTT | 0.962
TCATGGGCAC | 0.99
TCATGGTACT | 1.04
TCATGTAGGC | 1.06
TCATGTCAAC | 0.929
TCATGTCTTT | 1.01
TCATGTGGGT | 0.992
TCATGTTGAG | 0.98
TCATTATAGC | 0.974
TCATTCGTAC | 1.56
TCATTCTTAC | 1.06

Sequence | switch fluorescence ratio
TCATTGAGCA | 1.01
TCATTGGCTC | 1.05
TCATTGGTCT | 1
TCATTGTTGT | 0.958
TCATTTACT | 1.33
TCCAACGG | 1.02
TCCAACGGCC | 1.08
TCCAACGTGG | 1.11
TCCAAGGATG | 1.03
TCCAAGGTTT | 1.06
TCCAATGT | 1.02
TCCACACCAA | 1.32
TCCACACGAT | 1.05
TCCACAGCCA | 2.36
TCCACAGGCA | 1.12
TCCACGCTTG | 1
TCCACTTTTT | 0.972
TCCAGCAGGG | 1.09
TCCAGGAAAG | 0.999
TCCAGGGGTT | 1.18
TCCAGGTTTT | 1.12
TCCAGTCTTA | 1.01
TCCAGTGCTG | 0.965
TCCAGTGGAC | 1.01
TCCATAAGCT | 0.956

Sequence | switch fluorescence ratio
TCCATACAGT | 1.01
TCCATCACGT | 1.06
TCCATTCCAG | 0.981
TCCATTCTGA | 0.985
TCCATTTTGA | 1.03
TCCCAACGTG | 1.11
TCCCAGTTTC | 1.06
TCCCATAAGA | 1.04
TCCCCGAATG | 1.07
TCCCCGGGCG | 1.19
TCCCCGTATG | 1.18
TCCCCTGGCA | 0.999
TCCCCTTTCG | 1.04
TCCCGGCTGA | 1.08
TCCCGTTCCC | 1.04
TCCCTACTCG | 1.13
TCCCTGTAAT | 1.22
TCCCTGTTAA | 1.04
TCCCTTAGCA | 1.04
TCCGAACAAA | 0.989
TCCGATTCAA | 4.89
TCCGCACGGT | 1.56
TCCGCAGGCA | 1
TCCGCCGTGT | 1.12
TCCGCGTATG | 1.27

Sequence | switch fluorescence ratio
TCCGCTAGTT | 1.65
TCCGGACAGT | 1.04
TCCGGGGGTT | 0.948
TCCGGGTAGT | 1.05
TCCGGTCTGC | 1.07
TCCGGTGGGG | 0.964
TCCGGTTCGC | 1.13
TCCGTAACGG | 1.06
TCCGTCTCGC | 1.13
TCCGTGAATA | 1.94
TCCGTGGGCG | 1.05
TCCGTTTCGT | 1
TCCGTTTTC | 1.13
TCCTAAGATT | 0.969
TCCTACTAAG | 1.04
TCCTAGCGGC | 1.22
TCCTAGGATA | 1.03
TCCTAGGTG | 4.96
TCCTAGTTCG | 0.977
TCCTCAAGAT | 2.27
TCCTCGGAGG | 1.01
TCCTCTAAAT | 1.28
TCCTCTGGGA | 1.81
TCCTCTTTTA | 0.963
TCCTGAGGAC | 1.05
